Assay results taken from PMC7196074.
Results are given in words; binding and its absence hold for the method and conditions named. Binding seen in cells or lysates may run through a third protein. Some results given as binding are weak or reduced against the parent protein; the word gives no strength. Tags and fused reporters may be left off the sequences shown.

Sequences of proteins named here, by UniProt entry; tags and fusion partners are left off. A change or cut given only in a name is not applied to a line headed by its entry. Residues count along the entry.
UniProt P21187: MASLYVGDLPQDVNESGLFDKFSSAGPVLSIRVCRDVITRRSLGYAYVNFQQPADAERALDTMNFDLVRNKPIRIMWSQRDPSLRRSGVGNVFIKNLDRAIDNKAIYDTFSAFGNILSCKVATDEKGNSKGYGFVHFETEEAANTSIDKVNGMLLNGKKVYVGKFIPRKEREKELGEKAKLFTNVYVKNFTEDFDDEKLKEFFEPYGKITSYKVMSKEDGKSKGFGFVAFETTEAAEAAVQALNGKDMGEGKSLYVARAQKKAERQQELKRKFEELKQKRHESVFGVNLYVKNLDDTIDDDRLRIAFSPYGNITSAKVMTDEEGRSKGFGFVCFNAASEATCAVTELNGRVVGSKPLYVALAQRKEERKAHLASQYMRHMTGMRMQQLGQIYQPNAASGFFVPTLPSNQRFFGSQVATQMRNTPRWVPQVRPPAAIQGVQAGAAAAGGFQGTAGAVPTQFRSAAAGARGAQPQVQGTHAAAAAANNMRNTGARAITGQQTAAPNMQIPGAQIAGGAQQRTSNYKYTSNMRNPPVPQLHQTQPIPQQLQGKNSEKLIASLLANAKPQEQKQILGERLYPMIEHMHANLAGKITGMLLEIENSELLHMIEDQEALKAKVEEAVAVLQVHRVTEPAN
GST-PABC (PABP): residues 552-629 of P21187

T1: GFP-Aub (Aubergine) (Drosophila) (UniProt O76922)
T1 sequence: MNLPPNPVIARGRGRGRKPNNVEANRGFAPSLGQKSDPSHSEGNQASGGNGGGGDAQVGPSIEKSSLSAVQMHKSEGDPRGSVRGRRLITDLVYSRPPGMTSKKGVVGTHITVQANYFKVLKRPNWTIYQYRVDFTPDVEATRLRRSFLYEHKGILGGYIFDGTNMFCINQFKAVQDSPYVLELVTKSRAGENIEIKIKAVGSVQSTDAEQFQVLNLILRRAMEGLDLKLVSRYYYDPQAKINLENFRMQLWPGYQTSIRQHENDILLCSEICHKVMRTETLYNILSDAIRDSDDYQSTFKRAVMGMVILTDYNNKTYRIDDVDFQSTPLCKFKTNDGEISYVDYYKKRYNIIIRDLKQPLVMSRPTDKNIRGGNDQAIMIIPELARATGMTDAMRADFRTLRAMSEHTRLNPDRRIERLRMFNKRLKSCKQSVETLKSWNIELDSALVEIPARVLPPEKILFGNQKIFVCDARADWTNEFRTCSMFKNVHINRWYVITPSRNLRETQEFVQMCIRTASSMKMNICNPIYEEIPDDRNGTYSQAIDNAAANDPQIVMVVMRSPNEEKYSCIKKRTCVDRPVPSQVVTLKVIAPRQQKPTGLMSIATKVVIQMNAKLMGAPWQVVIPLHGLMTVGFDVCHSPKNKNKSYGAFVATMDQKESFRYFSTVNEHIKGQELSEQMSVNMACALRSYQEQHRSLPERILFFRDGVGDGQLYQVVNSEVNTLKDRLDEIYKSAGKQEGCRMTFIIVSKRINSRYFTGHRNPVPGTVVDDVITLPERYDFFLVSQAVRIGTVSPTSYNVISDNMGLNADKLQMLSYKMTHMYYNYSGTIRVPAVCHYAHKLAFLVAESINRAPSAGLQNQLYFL

T2: FLAG-FFL-Aub (Drosophila) (UniProt O76922)
T2 sequence: T1 sequence

B1: HA-RL-eIF3b (protein, UniProt Q0E940 1-690)
chain: MAKKKSEEHSGTDANDSDYQEEPNFDDPPGFVDNISDEDLLGDMLAQRPSEADGVESVVVVDNIPKVEPVRLEKLKLVINKLFSNYGEIVNVVYPVDEEGKTKGYAFMEYKQARQAEEAVKKLNNHRLDKNHTFAVNLFTDFQKYENIPEKWEPPTVQTFKVQSDLYNFINDPDTYDQYCVAAETAPNCVQVGFWQNVLPEPFELETRERFTDTFVKWSPLGTYVVTFHKPGVAIWGGSSFQKIQKFPHPGTQFVEFSPCENYLVTYGPTPTGQKIIIWDIRTGAEKRSFVADGMSVLSMFRWSHDDKFVARMGENSIHIYETPSFYLLDLKSIKIPGIRGFSWSPTDNVIAYWVEEQNQIPARVTLMEIPKKREIRNKNLFHVADCKLHWQKSGDYLCVKVDRYSKLKKDKKDLDVKFLGMFYNFEIFHMREKEIPVDSVEIRELILAFAWEPVGNKFSIIHGETNSSNVSFYEVNKGVKPSLVKRLEKKSCTHLFWSPRGQFIVMANLTMGTFEFVDSTNDYIITASPDHFRASEVEWDPTGRYVVTGVSSWKVKEDTGFNMYTFQGRIIKRTILKNFVQFLWRPRPPTLLSEEKQKEIKKNLKKYYAAFEQKDRLRLTRASKELLEKRSQLRETFMEYRNKRIAEWAEQKSRRIMLRGHVDTDNLETDEVDEEIVEFLVKEEVTLLE
B2: HA-RL-eIF3h (protein, UniProt Q9U9Q4 1-338)
chain: MANRANRHAARTEDSDNTINYVQCDGLAVMKMVKHCHEESSNMDLAQGALLGLVVDKCLEITNCFPFPKSGDETMDEEMYQLTVMRRLRRVNVDHLHVGWYQSSDVGNSLSMALLESQYHYQTSIEESVVVVYDTQKSSRGFLCLKAYRLTPQAIQMYKDGDFTPEAFRTLKVGYENLFAEIPIVIKNSPLTNIMMSELNELLPEDKGHNFLDLGTATVLENQMRSLIERVDELYQEAVRYNKYQQVVFKQDTEKHRALAKLAAENAVRTSKGEPTVPEEEVIKQFRPMTAPNRLTATITSGQINTHAQHIAQFCSQSLAKLFITESLQIAKEAKETK
B3: HA-Aub(476-866) (domain or fragment, UniProt O76922 476-866)
chain: DWTNEFRTCSMFKNVHINRWYVITPSRNLRETQEFVQMCIRTASSMKMNICNPIYEEIPDDRNGTYSQAIDNAAANDPQIVMVVMRSPNEEKYSCIKKRTCVDRPVPSQVVTLKVIAPRQQKPTGLMSIATKVVIQMNAKLMGAPWQVVIPLHGLMTVGFDVCHSPKNKNKSYGAFVATMDQKESFRYFSTVNEHIKGQELSEQMSVNMACALRSYQEQHRSLPERILFFRDGVGDGQLYQVVNSEVNTLKDRLDEIYKSAGKQEGCRMTFIIVSKRINSRYFTGHRNPVPGTVVDDVITLPERYDFFLVSQAVRIGTVSPTSYNVISDNMGLNADKLQMLSYKMTHMYYNYSGTIRVPAVCHYAHKLAFLVAESINRAPSAGLQNQLYFL
B4: HA-Aub(1-482) (domain or fragment, UniProt O76922 1-482)
chain: MNLPPNPVIARGRGRGRKPNNVEANRGFAPSLGQKSDPSHSEGNQASGGNGGGGDAQVGPSIEKSSLSAVQMHKSEGDPRGSVRGRRLITDLVYSRPPGMTSKKGVVGTHITVQANYFKVLKRPNWTIYQYRVDFTPDVEATRLRRSFLYEHKGILGGYIFDGTNMFCINQFKAVQDSPYVLELVTKSRAGENIEIKIKAVGSVQSTDAEQFQVLNLILRRAMEGLDLKLVSRYYYDPQAKINLENFRMQLWPGYQTSIRQHENDILLCSEICHKVMRTETLYNILSDAIRDSDDYQSTFKRAVMGMVILTDYNNKTYRIDDVDFQSTPLCKFKTNDGEISYVDYYKKRYNIIIRDLKQPLVMSRPTDKNIRGGNDQAIMIIPELARATGMTDAMRADFRTLRAMSEHTRLNPDRRIERLRMFNKRLKSCKQSVETLKSWNIELDSALVEIPARVLPPEKILFGNQKIFVCDARADWTNEFR

Columns and labels:
[1] = molecular target: T1, GFP-Aub (Aubergine) (Drosophila); assay: co-IP; 0-2 h embryo extracts in IP buffer (20 mM Tris pH 7.5, 150 mM NaCl, 0.2% NP-40) with RNase inhibitor; IP with anti-GFP, anti-HA or anti-PABP, 2.5 h at 4 °C; western blot
[2] = molecular target: T2, FLAG-FFL-Aub (Drosophila); assay: co-IP; LUMIER (quantitative luminescence-based coIP): FLAG-FFL-Aub and HA-RL fusions transiently expressed in S2R+ cells; lysates in HNTG buffer on plates coated with anti-FLAG, 3 h on ice; Renilla and Firefly luciferase activities read; control without antibody
[3] = molecular target: GST-PABC (PABP) (Drosophila) (UniProt P21187); assay: pull-down; GST fusions of PABP domains immobilised on glutathione-Sepharose beads; in vitro-translated HA-Aub fragments; 50 mM HEPES pH 7.5, 500 mM NaCl, 0.5% NP-40, with 0.2 µg/µL RNase A; 1 h at 4 °C then 30 min at room temperature; anti-HA western blot; only the target purified

| binding [2] | binding [3] | other results | Molecule |
| --- | --- | --- | --- |
|  |  | binding [1]: binds | poly(A)-binding protein (PABP), endogenous (from UniProt P21187 1-634) |
| binds |  |  | HA-RL-PABP (from UniProt P21187 1-634) |
| binds |  |  | B1 |
| binds |  |  | B2 |
|  | no binding |  | B3 |
|  | no binding |  | B4 |
